Laboratory results published in publication PMC6633398.
These are yes or no findings as the source states them, for the method shown. In cells and extracts the contact can be indirect. Some results given as binding are weak or reduced against the parent protein; the word gives no strength.

Protein sequences, listed by entry. Tags and fused reporters are not part of them. Lines headed by an entry give the natural chain unless they say otherwise; changes in a name come on top.
UniProt O43681: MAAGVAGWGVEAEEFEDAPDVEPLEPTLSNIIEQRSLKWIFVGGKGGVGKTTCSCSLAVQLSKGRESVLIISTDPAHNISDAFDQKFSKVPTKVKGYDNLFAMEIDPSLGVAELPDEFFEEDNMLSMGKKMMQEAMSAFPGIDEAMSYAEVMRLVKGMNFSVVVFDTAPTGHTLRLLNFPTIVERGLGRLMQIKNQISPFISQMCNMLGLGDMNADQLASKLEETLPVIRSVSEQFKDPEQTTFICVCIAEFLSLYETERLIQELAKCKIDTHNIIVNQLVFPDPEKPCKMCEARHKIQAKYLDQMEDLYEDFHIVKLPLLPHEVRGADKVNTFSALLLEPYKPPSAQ

Legend:
[1] = molecular target: c-Myc–TRC40_(D74E/L190K/I193K), charge-inverted triple mutant (UniProt O43681); assay: co-IP; c-Myc–TRC40 variants expressed in transfected HEK293 cells; precipitated with anti-c-Myc agarose from the cytosolic fraction (180,000 g, 1 h) in the absence of detergent; IP buffer 50 mM HEPES, 150 mM NaCl, 1.5 mM MgCl2, 1 mM EGTA, pH 7.4; 2.5 h; endogenous TA proteins detected by western blot
[2] = molecular target: c-Myc–TRC40_(D74E), ATPase-impaired trap mutant of TRC40 (UniProt O43681); assay: as above

B1: CASP (encoded by CUX1; isoform 4) (protein, UniProt Q13948 1-678)
chain: MAANVGSMFQYWKRFDLQQLQRELDATATVLANRQDESEQSRKRLIEQSREFKKNTPEDLRKQVAPLLKSFQGEIDALSKRSKEAEAAFLNVYKRLIDVPDPVPALDLGQQLQLKVQRLHDIETENQKLRETLEEYNKEFAEVKNQEVTIKALKEKIREYEQTLKNQAETIALEKEQKLQNDFAEKERKLQETQMSTTSKLEEAEHKVQSLQTALEKTRTELFDLKTKYDEETTAKADEIEMIMTDLERANQRAEVAQREAETLREQLSSANHSLQLASQIQKAPDVEQAIEVLTRSSLEVELAAKEREIAQLVEDVQRLQASLTKLRENSASQISQLEQQLSAKNSTLKQLEEKLKGQADYEEVKKELNILKSMEFAPSEGAGTQDAAKPLEVLLLEKNRSLQSENAALRISNSDLSGRCAELQVRITEAVATATEQRELIARLEQDLSIIQSIQRPDAEGAAEHRLEKIPEPIKEATALFYGPAAPASGALPEGQVDSLLSIISSQRERFRARNQELEAENRLAQHTLQALQSELDSLRADNIKLFEKIKFLQSYPGRGSGSDDTELRYSSQYEERLDPFSSFSKRERQRKYLSLSPWDKATLSMGRLVLSNKMARTIGFFYTLFLHCLVFLVLYKLAWSESMERDCATFCAKKFADHLHKFHENDNGAAAGDLWQ
For B1, the binding [1] was “binds” and the binding [2] was “binds”.
